# About 14,000 (4.5%) of roughly 310,000 compounds showed an effect of 50% or more. Effects have a minus sign here. Some of the results follow.
# Molecular target: human ether-à-go-go-related gene (hERG) potassium channel (human, UniProt Q12809)
# Test: primary screen, population patch clamp on CHO cells stably expressing hERG
# 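Also: peak tail current of the secondary pulse compared with the same well before compound.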
# Chain of human ether-à-go-go-related gene (hERG) potassium channel (Q12809 whole entry, looked up): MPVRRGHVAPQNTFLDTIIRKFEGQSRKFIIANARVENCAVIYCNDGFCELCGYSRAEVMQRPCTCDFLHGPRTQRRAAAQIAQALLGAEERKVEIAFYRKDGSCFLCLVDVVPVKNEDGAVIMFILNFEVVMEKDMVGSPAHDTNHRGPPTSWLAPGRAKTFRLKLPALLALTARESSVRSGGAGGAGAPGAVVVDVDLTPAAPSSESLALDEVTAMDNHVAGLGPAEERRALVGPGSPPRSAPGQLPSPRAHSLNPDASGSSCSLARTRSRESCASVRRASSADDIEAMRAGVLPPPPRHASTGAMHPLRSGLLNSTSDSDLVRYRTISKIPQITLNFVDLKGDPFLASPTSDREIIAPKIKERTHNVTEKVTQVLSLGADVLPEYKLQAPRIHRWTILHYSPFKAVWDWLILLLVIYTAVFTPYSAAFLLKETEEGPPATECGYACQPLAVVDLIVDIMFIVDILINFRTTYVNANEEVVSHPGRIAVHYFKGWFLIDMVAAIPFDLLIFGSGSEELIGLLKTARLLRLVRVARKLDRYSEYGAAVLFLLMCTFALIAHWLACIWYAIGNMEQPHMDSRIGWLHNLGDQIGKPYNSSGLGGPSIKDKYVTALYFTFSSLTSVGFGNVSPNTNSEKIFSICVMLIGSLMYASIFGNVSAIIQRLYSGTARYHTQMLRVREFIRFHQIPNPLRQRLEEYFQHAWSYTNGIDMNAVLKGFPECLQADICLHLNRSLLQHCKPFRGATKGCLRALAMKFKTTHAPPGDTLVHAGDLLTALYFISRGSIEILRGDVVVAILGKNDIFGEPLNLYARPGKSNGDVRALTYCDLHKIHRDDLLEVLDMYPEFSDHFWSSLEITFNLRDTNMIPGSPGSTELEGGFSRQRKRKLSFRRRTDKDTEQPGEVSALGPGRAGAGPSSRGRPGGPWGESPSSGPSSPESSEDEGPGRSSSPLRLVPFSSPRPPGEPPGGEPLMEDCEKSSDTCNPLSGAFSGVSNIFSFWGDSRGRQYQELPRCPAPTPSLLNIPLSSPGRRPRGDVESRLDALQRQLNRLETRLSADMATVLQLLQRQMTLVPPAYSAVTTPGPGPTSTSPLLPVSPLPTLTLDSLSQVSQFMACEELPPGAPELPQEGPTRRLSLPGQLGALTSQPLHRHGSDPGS
row,Compound,"hERG current change (%, negative = inhibition) at 10uM [%]"
1,COc1ccc(C2C(C(=O)NCc3ccccn3)c3cc(OC)c(OC)cc3C(=O)N2C)cc1 (stereo not shown),-16.6
2,O=C(CCn1c(=S)[nH]c2ccccc2c1=O)Nc1cccc(Cl)c1,8.62
3,O=C(CSc1n[nH]c(-c2ccncc2)n1)Nc1ccc(Cl)cc1,10.6
4,CC(NC(=O)c1ccccc1Cl)C(=O)N1CCN(Cc2ccc3c(c2)OCO3)CC1 (stereo not shown),5.55
5,Fc1ccc(CN2CCN(c3ncccn3)CC2)c(F)c1,23.3
6,C/C(=N/OC(=O)c1c(-c2c(Cl)cccc2Cl)noc1C)c1cnccn1,-1.72
7,CC(=O)Nc1ccc(SCCCC(=O)c2ccccc2)cc1,2.69
8,Cn1c(SCc2nc3ccccc3s2)nnc1-c1cccs1,-36
9,O=C(c1ccccc1)N1CCN(C(=O)c2ccc3c(c2)OCCO3)CC1,-1.64
10,Cc1nc2nc(C)n(-c3ccccc3)c2s1,9.4
11,CCCC(=O)Nc1ccc2c(c1)c1ccccc1n2CC,9.23
12,CSc1nnc(Cc2cc(=O)[nH]c(=O)[nH]2)n1-c1cc(C)ccc1C,-7.11
13,CCc1c(C)nc2cc(-c3ccccc3)[nH]n2c1=O,-8.55
14,CCCC1=C(C(=O)OCC)C(c2cccnc2)n2nc(C)nc2N1 (stereo not shown),13
15,CCOC(=O)c1ccc(NC(=O)NC2CCN(CC(=O)NCc3ccc4c(c3)OCO4)CC2)cc1,-8.69
16,Cc1ccc(/C=N/N=C/c2ccc(C)cc2)cc1,10.8
17,COCCNC(C(=O)Nc1ccc([N+](=O)[O-])cc1Br)c1ccccc1 (stereo not shown),-74
18,Cc1ccc2c(c1)NC(=O)C(CC(=O)NCCCN1CCc3ccccc3C1)O2 (stereo not shown),-65.7
19,O=C1c2cccc3cccc(c23)C(=O)N1OS(=O)(=O)c1ccc(Cl)cc1,14.2
20,CCCCC(O)(CCCC)C(=O)NN(C(=O)OC)c1ccc(C)cc1,2.88
21,CCn1c(=O)c2sccc2n(CC(=O)NCCC2=CCCCC2)c1=O,3.85
22,S=c1[nH]nc(-c2cc(-c3ccccc3)n[nH]2)n1/N=C/c1c2ccccc2cc2ccccc12,7.84
23,Cc1ccsc1CN1CCC(C(=O)NCc2ccccc2Cl)CC1.O=C(O)C(=O)O,-27
24,COc1cc(C(=S)N2CCOCC2)cc(OC)c1OC(=O)c1ccc(F)cc1,-3.47
25,O=C(NCc1cccc(F)c1)c1ccc(N2C(=O)Cn3c(cc4sccc43)C2=O)cc1,6.99
26,Cc1oc(-c2ccccc2)nc1C(=O)OCC(=O)NC(=O)NCC(C)C,8.36
27,CCOc1cc(NC(=O)c2ccco2)c(OCC)cc1NC(=O)c1cc(OC)c(OC)c(OC)c1,17.2
28,COc1ccc(CNc2nc3c(c(=O)[nH]c(=O)n3C)n2Cc2ccccc2)cc1,28.3

row,Compound,"hERG current change (%, negative = inhibition) at 10uM [%]"
1,CCS(=O)(=O)N1CCC(NC(=O)C(Cc2cc(OC)ccc2OC)NC(C)=O)CC1 (stereo not shown),5.93
2,C=CC[N+]1(CC(=O)NCc2ccc(NC(C)=O)cc2)CCOCC1.[Br-],4.09
3,CCOC(=O)Cc1csc(NC(=O)CCc2ccc(S(=O)(=O)N3CCOCC3)cc2)n1,-8.88
4,O=P(CCC(F)(F)F)(CCC(F)(F)F)CCC(F)(F)F,10.4
5,COc1ccc2oc(=O)c(C(=O)NCc3ccc(F)cc3)cc2c1,2.69
6,O=[N+]([O-])c1ccccc1/C=N/Nc1nc(N2CCCC2)nc(N2CCCC2)n1,23.1
7,COC1(OC)C(/C=C/c2ccc(C)cc2)C(C#N)(C#N)C1(OC)OC (stereo not shown),-10.4
8,COc1cc(C2NC(=O)NC(C)=C2C(=O)OC2CCCCC2)cc(Cl)c1O (stereo not shown),-8.25
9,CCC(CCC(=O)Nc1ccn(-c2ccccc2)n1)C(=O)O (stereo not shown),-0.849
10,O=C(CCc1ccc(S(=O)(=O)NCc2ccccc2)cc1)NCc1cccnc1,-7.01
11,COc1cc(/C=C2/C(=O)NN(c3ccc(Cl)cc3)C2=O)cc(Br)c1O,19.7
12,COc1ccccc1CCNC(=O)C(=O)Nc1cc2c3c(c1)CC(=O)N3CCC2,-27.7
13,CC1CCN(C(=O)c2cccc(S(=O)(=O)N3CCN(c4ccccc4)CC3)c2)CC1,2.41
14,O=C(NCc1ccccc1)C1(CC2CC(c3ccccc3)=NO2)CCNCC1 (stereo not shown),-7.21
15,Cc1ccc2[nH]c(CNC(=O)c3ccc(F)cc3)cc2c1,6.03
16,CCOc1ccc(NC(=O)Nc2cc(C)on2)cc1,11.8
17,Cc1cccc(C)c1OCCn1nnc2ccccc21.Cl,9.21
18,CCOC(=O)C1CCN(c2ncnc3c2c(-c2ccccc2)cn3-c2ccc(C)cc2)CC1,19.4
19,CN(Cc1ccccc1)Cc1nc2c(c(=O)n(C)c(=O)n2C)n1CCCc1ccccc1,-50.3
20,CC(C)(C)CN1C(N)=NC[C@H]1Cc1ccc(O)cc1,17.5
21,Cc1nc(N2CCOCC2)nc(N2CCCC2)c1[N+](=O)[O-],3.43
22,O=C(NCCc1ccc(F)cc1)NC12CC3CC(CC(C3)C1)C2,-13.4
23,CCOC(=O)c1ccccc1NC(=O)COC(=O)CCC1CCCC1,-18.1
24,O=C1C2CCCCC2C(=O)N1Cc1ccccc1 (stereo not shown),7.42
25,O=[N+]([O-])c1ccc(N2CCN(CCO)CC2)cc1NCc1ccco1,-32.2
26,COc1ccc(C)cc1S(=O)(=O)N1CCC(C(=O)NC2CCCC2)CC1,7.69
27,CN(C)S(=O)(=O)c1ccc(N2CCCC2)c(C(=O)N2CCN(c3ccc([N+](=O)[O-])cc3)CC2)c1,-76.7

# — PMC4336329 (PLoS ONE, 2015)
